Consider 36 sequences from the supplement of paper PMC7726561.

The full ranking holds about 1,400 sequences; the median of “thermal melting temperature (Tm) of peptide-HLA complex” is about 60, and the lowest 2% start at about 45. The list shows a part of the results.
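Note: cell lysates heated 10 min at 37–73 °C, remaining pHLA pulled down with pan-class I antibody, peptides quantified by DIA-MS versus 37 °C, Tm where half the complex is lost.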

For the assay, the target named is HLA-B*07:02. Briefly: thermal melting temperature (Tm) of peptide-HLA complex; higher = more thermostable pHLA complex. The note with it: C1R-B*07:02.
RPVPWNAL: the thermal melting temperature came to 58.8 °C.

APYGRITL gave a thermal melting temperature of 59.7 °C.

The sequence FDPALLEF came in with a thermal melting temperature of 42.6 °C.

Sequence HPRAPVLL had a thermal melting temperature of 59.5 °C.

The sequence SPRKDGLVSL displayed a thermal melting temperature of 61.1 °C.

In turn, IPANWKTEL yielded a thermal melting temperature of 60.2 °C.

In the case of LPRENQVVEL, the thermal melting temperature was 59.5 °C.

Take RPDDVPLSL: the thermal melting temperature was 60 °C.

APPRPGSSF: the thermal melting temperature amounted to 56 °C.

Take QPRTPSPLVL: the thermal melting temperature came to 60.2 °C.

For the sequence APKPKWTQL, the thermal melting temperature turned out to be 57.4 °C.

IPELHRPVV had a thermal melting temperature of 59.5 °C.

Consider WVDEERASL, for which the thermal melting temperature was determined as 54.4 °C.

Sequence SPASRSISLL gave a thermal melting temperature of 57.1 °C.

Sequence APREDPVLL gave a thermal melting temperature of 63 °C.

RPHAFQVIL came in with a thermal melting temperature of 60.2 °C.

RPAFFAERL displayed a thermal melting temperature of 59.6 °C.

Sequence RPAGALVAL showed a thermal melting temperature of 59.9 °C.

The sequence RPRPPITL displayed a thermal melting temperature of 62.7 °C.

In the case of VPVPPNVAF, the thermal melting temperature worked out at 63.3 °C.

LPRVTELAL: the thermal melting temperature stood at 62.1 °C.

Regarding IPQPTPASL, the thermal melting temperature worked out at 62.2 °C.

Turning to NPEKRYNVL, the thermal melting temperature turned out to be 56.3 °C.

On to APRPDRLVNRL, for which the thermal melting temperature came out at 57.3 °C.

In the case of IPAGERPTI, the thermal melting temperature was 59.9 °C.

LPASWRPVTL registered a thermal melting temperature of 60.3 °C.

Turning to VPKYWGSGL, the thermal melting temperature was determined as 60.3 °C.

Sequence FPKNIFAEL yielded a thermal melting temperature of 62.8 °C.

The sequence PRVPTHTL came in with a thermal melting temperature of 62.6 °C.

Consider NPKRQTLVF, for which the thermal melting temperature came out at 53.7 °C.

The sequence TPFKGGTL had a thermal melting temperature of 52.2 °C.

Turning to SPSPAQAQTL, the thermal melting temperature was determined as 61.1 °C.

In turn, RPFSQGIVIL yielded a thermal melting temperature of 48.7 °C.

Turning to TPAVIRISV, the thermal melting temperature was determined as 60.2 °C.

RPTEGVQAL returned a thermal melting temperature of 54.3 °C.

For RPKYQFLSL, the thermal melting temperature came to 58.1 °C.
